Experimental data reported in patent US20020058020A1, “Isolated amphiphilic peptides derived from the cytoplasmic tail of viral envelope proteins” (priority 1999, published 2002).

Assay: Planar lipid bilayer integrity assay (current induction across voltage-clamped membrane)
Conditions: 3 μM peptide, membrane at +50 mV

With “ILNRLVQFVKDRISVVQAL (Moloney murine sarcoma virus) [Peptide 598-616]” the “planar membrane destabilizing activity (in words)” value was “causes increase in a non-selective planar membrane conductance that leads to membrane rupture”.
